We go through 6 compounds from patent US5576355A, “Diamondoid derivatives for pharmaceutical use” (priority 1993, dated 1996).

The test system of this assay is AZT resistant strain (AZTR) of HIV-1. Kind of assay: Anti-HIV assay (MTT), pre- or post-infection, AZT resistant strain. Also on record: key: ++++: significant and reproducible inhibition of cytopathic effect; +++: significant and reproducible inhibition of cytopathic effect; +: noticeable but minimal protection; ---: no protective effect was observed; --: no protective effect was observed; -: no protection was observed but some changes in the cell culture occurred. On the procedure: The AZT resistant strain (AZTR) of HIV-1 (cat. no. 629) which was isolated from an AIDS patient and developed by Douglas Richman was also obtained from the AIDS repository. (Larder et al., Science, 1989, 243, 1731-1734)
MN was grown in H9 cells. […] J. Hyg., 1938, 27, 493-7.

Turning to `O[C@@H]1[C@@H]2C[C@H]3C[C@@H](C2)C2(OCCO2)[C@@H]1C3` (relative stereo) [Compound 8, 4(e)-hydroxy-2-adamantanone ethylene glycol ketal], the “AZTR Post-Infection” value is listed as “--” and the “AZTR Pre-Infection” value is on record as “--”.

`O=C(O)CNC1C2CC3CC(C2)CC1C3` (centres unmarked) [Compound 5, N-2-adamantyl glycine]: the “AZTR Post-Infection” value is “--” and the “AZTR Pre-Infection” value was “--”.

Turning to `CC12CC3(C)CC(O)(C1)CC(O)(C2)C3` [Compound 2, 1,3-dihydroxy-5,7-dimethyladamantane], the “AZTR Post-Infection” value is “--” and the “AZTR Pre-Infection” value is on record as “--”.

With `OC12CC3(O)CC(O)(C1)CC(O)(C2)C3` [Compound 1, 1,3,5,7-tetrahydroxyadamantane], the “AZTR Post-Infection” value is “--” and the “AZTR Pre-Infection” value is recorded as “--”.

Regarding `C[N+](C)(C)CCC[N+](C)(C)C1C2CC3C4CC5CC3C1C(C5)C4C2` (centres unmarked) [Compound 3, N-3-diamantyl-N,N,N',N',N'-pentamethyl propane-1,3-bis ammonium diiodide], the “AZTR Post-Infection” value was “--” and the “AZTR Pre-Infection” value was “--”.

`O=C1C2CC3CC(C2)C(=O)C1C3` [Compound 7, 2,4-adamantanedione]: the “AZTR Post-Infection” value is “--”.
